# Source: paper PMC4336329 (PLoS ONE, 2015)
# Among all 310,000 compounds or so, about 14,000 (4.5%) showed an effect of 50% or more. Effects have a minus sign here. Some of the results follow.
# Biological target: human ether-à-go-go-related gene (hERG) potassium channel (human, UniProt Q12809)
# Assay: primary screen, population patch clamp on CHO cells stably expressing hERG
# 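Further: peak tail current of the secondary pulse compared with the same well before compound.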
# Chain of human ether-à-go-go-related gene (hERG) potassium channel (Q12809 whole entry, looked up): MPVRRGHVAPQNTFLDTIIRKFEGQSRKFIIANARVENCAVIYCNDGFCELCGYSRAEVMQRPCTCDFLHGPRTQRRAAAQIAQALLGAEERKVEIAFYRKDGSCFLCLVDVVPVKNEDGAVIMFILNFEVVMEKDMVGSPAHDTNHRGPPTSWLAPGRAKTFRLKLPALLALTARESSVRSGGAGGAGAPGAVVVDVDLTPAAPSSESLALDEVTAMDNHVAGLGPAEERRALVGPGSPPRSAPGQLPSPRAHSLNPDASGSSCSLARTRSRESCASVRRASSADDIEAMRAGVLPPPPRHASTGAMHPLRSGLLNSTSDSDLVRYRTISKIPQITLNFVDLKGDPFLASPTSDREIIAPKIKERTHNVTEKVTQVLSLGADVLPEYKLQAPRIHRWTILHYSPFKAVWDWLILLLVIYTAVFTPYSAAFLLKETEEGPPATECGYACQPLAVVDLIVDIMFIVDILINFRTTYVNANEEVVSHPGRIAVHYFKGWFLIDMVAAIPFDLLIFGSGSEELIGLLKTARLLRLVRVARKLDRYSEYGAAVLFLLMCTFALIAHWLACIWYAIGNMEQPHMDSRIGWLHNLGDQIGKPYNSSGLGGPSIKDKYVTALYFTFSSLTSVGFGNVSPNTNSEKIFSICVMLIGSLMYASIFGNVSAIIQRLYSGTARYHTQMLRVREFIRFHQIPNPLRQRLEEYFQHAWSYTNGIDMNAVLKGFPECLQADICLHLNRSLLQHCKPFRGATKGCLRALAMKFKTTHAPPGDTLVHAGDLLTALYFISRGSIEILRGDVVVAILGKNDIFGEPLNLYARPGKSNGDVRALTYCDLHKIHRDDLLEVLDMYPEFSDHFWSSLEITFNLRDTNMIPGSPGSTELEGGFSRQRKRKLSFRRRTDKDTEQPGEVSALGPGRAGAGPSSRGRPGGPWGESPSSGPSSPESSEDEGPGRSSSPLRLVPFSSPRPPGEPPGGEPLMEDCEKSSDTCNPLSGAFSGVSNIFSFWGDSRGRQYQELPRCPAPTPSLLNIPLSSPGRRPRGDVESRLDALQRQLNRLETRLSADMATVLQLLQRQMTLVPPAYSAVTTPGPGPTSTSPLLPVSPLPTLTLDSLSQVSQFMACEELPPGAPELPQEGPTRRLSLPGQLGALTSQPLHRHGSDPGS
row,SMILES,"hERG current change (%, negative = inhibition) at 10uM"
1,CC(C)CC(NC(=O)C1CCC(C)CC1)C(=O)N1CCN(c2ccccn2)CC1 (centres unmarked),-47.7%
2,CC1(C)CNC(=O)c2sc(N3CCOCC3)nc2C1,2.81%
3,COc1ccc(C(=O)Nc2ccnn2C2CCN(C(C)CSC)CC2)cc1 (centres unmarked),1.28%
4,CNC(=O)c1cc(Oc2ccc(NC(=O)Nc3ccc(Cl)c(C(F)(F)F)c3)cc2)ccn1.Cc1ccc(S(=O)(=O)O)cc1,11%
5,COc1cc2[nH]c(=S)n(-c3ccccc3)c(=O)c2cc1OC,14.4%
6,CCOc1ccccc1CN1C(=O)NC2(CCCCCC2)C1=O,9.32%
7,O=C(NCC(c1cccs1)N1CCOCC1)c1ccc(Cl)cc1 (centres unmarked),-3.21%
8,O=C(Nc1ccc(NC(=O)c2cccnc2Cl)cc1)c1cccc(Cl)c1,15.1%
9,CC(C)NC(=S)NCc1cccnc1,9.15%
10,CCN(CC)CCOC(=O)c1ccc(NC(=O)C2(c3ccccc3)CCCC2)cc1.Cl,-34.8%
11,COc1ccc(Cl)cc1C(=O)Nc1ccc(OCC(=O)N2CCOCC2)cc1,11.9%
12,Cc1ccc(S(=O)(=O)n2cnc3cc([N+](=O)[O-])ccc32)c(C)c1C,13.1%
13,CCN1CCN(S(=O)(=O)c2ccc3ccccc3c2)CC1,-2.68%
14,Cc1ccccc1C(=O)N1CCC(C(=O)Nc2ccccc2N2CCCC2)CC1,-0.721%
15,Cl.N=c1sccn1Cc1ccccc1F,17.7%
16,CC(=O)N1CCN(C(=O)c2cc(S(=O)(=O)Nc3ccc(S(C)(=O)=O)cc3)ccc2Cl)CC1,10.4%
17,CCn1c(SCC(=O)c2cc(C)n(-c3ccc(C(=O)OC)cc3)c2C)nnc1-c1cccnc1,-3.95%
18,Cc1ccc(C(=O)NC2CCN(C(=O)Nc3ccccc3Cl)CC2)cc1,-3.16%
19,Cc1cccc(CN2C(=O)N/C(=C/c3ccc(C)s3)C2=O)c1,3.31%
20,COc1ccc(/C=C2\SC(=S)N(N3C(=O)CCC3=O)C2=O)cc1O,7.43%
21,O=C(c1sc2ccccc2c1Cl)N(Cc1ccccc1Cl)C1CCS(=O)(=O)C1 (centres unmarked),-12.3%
22,Cc1cccc(Cc2nnc(CCC(=O)NCc3cn4ccccc4n3)o2)c1,-4.88%
23,C=CCN1C(=NC(=O)COc2ccccc2)SC2CS(=O)(=O)CC21 (centres unmarked),8.17%

row,SMILES,"hERG current change (%, negative = inhibition) at 10uM"
1,Cc1cccc2sc(NC(=O)CSCc3ccccc3)nc12,2.45%
2,COc1ccc(N(CC(=O)N/N=C/c2cc(Br)c(C)o2)S(=O)(=O)c2ccc(NC(C)=O)cc2)cc1,14.3%
3,CCCCc1nc(SCc2ccc([N+](=O)[O-])cc2)n[nH]1,-15.4%
4,C[C@@H]1CCC[C@]2(O[C@H](CCO)C[C@@H](O)[C@@H]2O)O1,7.2%
5,NC(=O)CN1C(=O)C2CCCCN2C(=O)c2ccccc21.O=C(O)C(=O)O (centres unmarked),13.8%
6,Cn1c(NC(=O)c2ccccc2)c(-c2ccccn2)c(=O)c2ccccc21,10.7%
7,O=S1(=O)N=C(N/N=C/c2cccs2)c2ccccc21,24.8%
8,O=C(OCc1ccccn1)c1ccc(COc2ccc3ccccc3c2)o1,16%
9,O=C(COC(=O)C12CC3CC(CC(Br)(C3)C1)C2)Nc1ccc2[nH]c(=O)[nH]c2c1,-24.4%
10,COCC1CCN(C(=O)c2cc(COc3ccc(-n4cncn4)cc3)on2)C1 (centres unmarked),-13%
11,CC1(C)CC(=O)C2=C(C1)NC1=C(C(=O)c3ccccc31)C2c1ccccc1 (centres unmarked),-12.5%
12,CCCCN1C(=O)C(O)(CC(=O)c2ccco2)c2cc(Br)ccc21 (centres unmarked),-7.03%
13,COCOc1ccc(-c2cc(=O)c3c(O)cc(OCOC)cc3o2)cc1,2%
14,Cc1cc(C)nc(SCC(=O)N/N=C/c2cccnc2)n1,0.457%
15,Cc1ccc(NC(=O)CSc2nnc(-c3ccoc3C)n2CCCN(C)C)cc1Cl,-69.3%
16,CSc1nc(-c2ccco2)nn1C(=O)c1cccs1,3.47%
17,COC(=O)C1=C(C)C(c2ccc(OC)cc2OC)NC(=O)N1 (centres unmarked),13.1%
18,COc1cc2ccccc2cc1C(=O)Nc1sc2c(c1C(N)=O)CCN(C(C)C)C2.Cl,-19.3%
19,COc1ccc(OCC(=O)N2CCN(c3cccc(C(F)(F)F)c3)CC2)cc1,-42.6%
20,Cc1n[nH]c(=O)c2ccccc12,19%
21,C=CCNC(=S)Nc1c(N)n(C)c(=O)n(C)c1=O,9.2%
22,COc1ccc(S(=O)(=O)N2CCCC2CNC(=O)C(=O)NCc2ccc3c(c2)OCO3)cc1 (centres unmarked),-21.9%
23,COc1cc2ncnc(NCc3ccco3)c2cc1OC,-4.53%

row,SMILES,"hERG current change (%, negative = inhibition) at 10uM"
1,Clc1ccc(OCCn2cnc3ccccc32)c(Cl)c1,-14.8%
2,O=C(Nc1cccc(S(=O)(=O)NC2=NCCCCC2)c1)c1cc(-c2ccncc2)nc2ccccc12,3.8%
3,CCOC(=O)CC1=C(C(=O)OCC)C2(C(=O)N1CC(=O)OC)C(C#N)=C(N)Oc1ccccc12 (centres unmarked),13.5%
4,Nc1cnc(-c2ccccc2)nc1Cl,11.1%
5,O=C(COc1ccc(Cl)cc1)N1CCN(S(=O)(=O)c2ccc(Cl)cc2)CC1,-11.9%
6,Cc1ccccc1CSc1nn2c(=O)c(C)nnc2s1,0.612%
7,Cc1ccc(NC(=O)CN(C)C(=O)CSc2ccc3c(c2)OCCO3)cc1,-15.9%
8,O=C(COc1ccccc1)NCC(c1cccs1)N1CCOCC1 (centres unmarked),-16.6%
9,Cc1ccc2nsnc2c1S(=O)(=O)NC1CC1,-13.6%
10,COc1ccc(C=O)cc1CSc1ncccc1C(=O)O,8.88%
11,O=C1C(Cl)=C(Nc2cccc(O)c2)C(=O)N1Cc1ccccc1,-62.4%
12,Fc1ccc2[nH]c3c(N4CCSCC4)ncnc3c2c1,-1.46%
13,COc1ccc(CNC(=O)c2cc(C)nn2-c2ccccc2)cc1,-13.9%
14,Cc1cccc(NC(=S)N2CCN(S(C)(=O)=O)CC2)c1,-2.24%
15,CN(C)c1ncc(CN2CCC(CO)(CCCc3ccccc3)CC2)s1,-51.3%
16,CCOC(=O)NC(C(F)(F)F)(C(F)(F)F)P(=O)(c1ccccc1)c1ccccc1,17.7%
17,N#Cc1c(-c2cccs2)cc(-c2ccccn2)nc1N,-2.64%
18,Cc1cccc(Nc2nc(NCc3ccco3)c3ccccc3n2)c1.Cl,-12.2%
19,Cc1cccc(/C(N)=N/OC(=O)CCCN2C(=O)c3ccccc3C2=O)c1,-10.7%
20,CC1(C)CC(=O)C(C=Nc2ccncc2)=C(O)C1,13.4%
21,NC(=O)COC(=O)c1cccc2c1-c1ccccc1C2=O,-30.9%
22,COc1ccc(-c2sc3ccc(N4CCOCC4)cc3c2C#CC(C)(C)O)cc1,18.6%
23,CCN(CC)Cc1c(O)ccc2c(=O)c(-c3ccccc3Cl)coc12,-22.4%

row,SMILES,"hERG current change (%, negative = inhibition) at 10uM"
1,COC(=O)CCC(=O)N1CCOCCOCCN(C(=O)CCC(=O)OC)CCOCCOCC1,1.93%
2,COc1ccccc1NC(=O)CSc1ncn[nH]1,-2.97%
3,O=C(COc1ccccc1O)Nc1ccccc1Cl,-4.32%
4,COc1ccc(S(N)(=O)=O)cc1C(=O)NCC(C)(C)N1CCCCC1,-15.2%
5,O=C(COc1ccc(Cl)cc1)Nc1cc(NC(=O)COc2ccc(Cl)cc2)cc(C(=O)O)c1,6.4%
6,COc1nc(NCCc2ccc(OC)c(OC)c2)nc(NC(C)(C)CO)n1,4.03%
7,COc1ccccc1Nc1cc2cc(Br)ccc2c(=O)[nH]1,25.2%
8,O=C(NCCCN1CCN(c2ccccc2)CC1)Nc1ccccc1C(F)(F)F,-49.3%
9,Cc1ccc(S(=O)(=O)N(C)C)cc1NC(=O)c1ccccc1SCC(=O)N1CCCC1,-5.32%
10,COc1ccc([N+](=O)[O-])cc1NCc1cccnc1,-22.7%
11,CC(NC(=O)c1ccccc1NS(=O)(=O)c1ccc(CCC(=O)O)cc1)c1ccccc1 (centres unmarked),12.5%
12,N#CCN1CCC(c2cc(-c3ccco3)n[nH]2)CC1,11.8%
13,CCOc1ccc(S(=O)(=O)Nc2cccc(C(=O)NCC(c3ccco3)N(C)C)c2)cc1 (centres unmarked),-21.5%
14,O=C(CCN1C(=O)/C(=C/c2ccc3c(c2)OCO3)SC1=S)Nc1cccc(C(=O)O)c1,17%
15,Cn1c(SCC(=O)Nc2ccc(F)cc2)nc2c(c1=O)SCC2,-6.44%
16,Cc1cc(Br)ccc1NC(=S)N1CCOCC1,12.5%
17,Cc1ccc(Nc2ccc(C(N)=O)cc2[N+](=O)[O-])cc1C,8.9%
18,CCOc1ncccc1C(=O)OCc1ccc(Cl)cc1,-20%
19,CC1(C)CC(=O)C(C2(O)C(=O)N(Cc3ccccc3)c3ccccc32)CO1 (centres unmarked),-6.27%
20,O=C(/C=C\c1ccc(-c2cccc([N+](=O)[O-])c2)o1)N1CCOCC1,-10.2%
